# Reference: article PMC6631257, “A Single Site Population Study to Investigate CYP2D6 Phenotype of Patients with Persistent Non-Malignant Pain” (Medicina, 2019)
# Tests used:
# [1] = system: patients with persistent non-malignant pain; test: Patient Global Impression of Change to Health after codeine; type: in vivo, human
# [2] = system: patients with persistent non-malignant pain; test: Analgesic response to a short course of codeine 30 mg QDS (BPI-sf scores, responder analysis); type: in vivo, human; settings: for % non-response within phenotype: non-response = <30% reduction in pain 'on the average'; for BPI-sf Pain 'on the average', mean ± SD / BPI-sf Pain interference (composite), mean ± SD / BPI-sf Pain severity (composite), mean ± SD: ITT n = 125, codeine 30 mg QDS
# [3] = Mean Day 0–4, p < 0.05 vs pre-codeine
smiles,measurement,setting,value
COc1ccc2c3c1O[C@H]1[C@@H](O)C=C[C@H]4[C@@H](C2)N(C)CC[C@@]341 [codeine],participants reporting improvement on Patient Global Impression of Change,"[1]; IMs, 2/6",33%
same,participants reporting improvement on Patient Global Impression of Change,"[1]; NMs who did not obtain an analgesic response, 58/80",73%
same,participants reporting improvement on Patient Global Impression of Change,"[1]; PMs, 9/11",82%
same,participants reporting improvement on Patient Global Impression of Change,"[1]; UMs, 1/2",50%
same,participants reporting improvement on Patient Global Impression of Change,"[1]; participants who did not obtain an analgesic response to codeine, 70/99",71%
same,participants reporting improvement on Patient Global Impression of Change,"[1]; participants who obtained an analgesic response to codeine, 20/26",77%
same,Codeine Responders (number of participants),"[2]; IM (AS 0.5), of 6",0
same,Codeine non-responders (number of participants),"[2]; IM (AS 0.5), of 6",6
same,% non-response within phenotype,[2]; IM (AS 0.5),6 (100%)
same,"BPI-sf Pain 'on the average', mean ± SD",[2]; End of Day 1,5.68 ± 2.28
same,"BPI-sf Pain interference (composite), mean ± SD",[2]; End of Day 1,5.09 ± 2.58
same,"BPI-sf Pain severity (composite), mean ± SD",[2]; End of Day 1,5.67 ± 2.27
same,"BPI-sf Pain 'on the average', mean ± SD",[2]; End of Day 2,5.55 ± 2.24
same,"BPI-sf Pain interference (composite), mean ± SD",[2]; End of Day 2,4.90 ± 2.59
same,"BPI-sf Pain severity (composite), mean ± SD",[2]; End of Day 2,5.54 ± 2.28
same,"BPI-sf Pain 'on the average', mean ± SD",[2]; End of Day 3,5.51 ± 2.37
same,"BPI-sf Pain interference (composite), mean ± SD",[2]; End of Day 3,4.91 ± 2.66
same,"BPI-sf Pain severity (composite), mean ± SD",[2]; End of Day 3,5.57 ± 2.40
same,"BPI-sf Pain 'on the average', mean ± SD",[2]; End of Day 4,5.57 ± 2.35
same,"BPI-sf Pain interference (composite), mean ± SD",[2]; End of Day 4,4.91 ± 2.73
same,"BPI-sf Pain severity (composite), mean ± SD",[2]; End of Day 4,5.62 ± 2.45
same,"BPI-sf Pain 'on the average', mean ± SD",[2]; End of Dosing Day (Day 0),6.00 ± 1.94
same,"BPI-sf Pain interference (composite), mean ± SD",[2]; End of Dosing Day (Day 0),5.31 ± 2.40
same,"BPI-sf Pain severity (composite), mean ± SD",[2]; End of Dosing Day (Day 0),5.93 ± 1.99
same,"BPI-sf Pain 'on the average', mean ± SD",[2]; [3],5.66 ± 2.11
same,"BPI-sf Pain interference (composite), mean ± SD",[2]; [3],5.02 ± 2.51
same,"BPI-sf Pain severity (composite), mean ± SD",[2]; [3],5.67±2.17
same,Codeine Responders (number of participants),"[2]; NM (AS 1.0), of 32",5
same,Codeine non-responders (number of participants),"[2]; NM (AS 1.0), of 32",27
same,Codeine Responders (number of participants),[2]; NM (AS 1.0–2.0),26
same,Codeine non-responders (number of participants),[2]; NM (AS 1.0–2.0),80
same,Codeine Responders (number of participants),"[2]; NM (AS 1.5), of 18",4
same,Codeine non-responders (number of participants),"[2]; NM (AS 1.5), of 18",14
same,Codeine Responders (number of participants),"[2]; NM (AS 2.0), of 56",17
same,Codeine non-responders (number of participants),"[2]; NM (AS 2.0), of 56",39
same,normal metabolisers who responded to codeine,"[2]; NM, activity scores 1.0–2.0",24.5%
same,Codeine Responders (number of participants),"[2]; PM (AS 0.0), of 11",0
same,Codeine non-responders (number of participants),"[2]; PM (AS 0.0), of 11",11
same,% non-response within phenotype,[2]; PM (AS 0.0),11 (100%)
same,Codeine Responders (number of participants),"[2]; UM (>2.0), of 2",0
same,Codeine non-responders (number of participants),"[2]; UM (>2.0), of 2",2
same,% non-response within phenotype,[2]; UM (>2.0),2 (100%)
same,codeine non-responders (did not achieve reduction of pain of ≥30% from baseline),"[2]; all ITT participants, 99/125, codeine 30 mg QDS",79%
same,codeine non-responders,"[2]; females, 58/74",78%
same,codeine non-responders,"[2]; males, 41/51",80%
same,codeine response if IM categorised using activity score 0.5–1.0,"[2]; re-categorised IM, AS 0.5–1.0 instead of 0.5",13%
same,codeine response if NM categorised using activity score 1.5–2.0,"[2]; re-categorised NM, AS 1.5–2.0",28%
